{"source": "paper PMC4336329", "about": "(PLoS ONE, 2015)", "note": "Screen size: about 310,000 compounds; about 14,000 (4.5%) showed an effect of 50% or more. The effect is printed as a negative number. Some of the results follow.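 Note: peak tail current of the secondary pulse compared with the same well before compound.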", "data": [{"biological_target": "human ether-à-go-go-related gene (hERG) potassium channel (human, UniProt Q12809)", "sequence (Q12809 whole entry, looked up)": "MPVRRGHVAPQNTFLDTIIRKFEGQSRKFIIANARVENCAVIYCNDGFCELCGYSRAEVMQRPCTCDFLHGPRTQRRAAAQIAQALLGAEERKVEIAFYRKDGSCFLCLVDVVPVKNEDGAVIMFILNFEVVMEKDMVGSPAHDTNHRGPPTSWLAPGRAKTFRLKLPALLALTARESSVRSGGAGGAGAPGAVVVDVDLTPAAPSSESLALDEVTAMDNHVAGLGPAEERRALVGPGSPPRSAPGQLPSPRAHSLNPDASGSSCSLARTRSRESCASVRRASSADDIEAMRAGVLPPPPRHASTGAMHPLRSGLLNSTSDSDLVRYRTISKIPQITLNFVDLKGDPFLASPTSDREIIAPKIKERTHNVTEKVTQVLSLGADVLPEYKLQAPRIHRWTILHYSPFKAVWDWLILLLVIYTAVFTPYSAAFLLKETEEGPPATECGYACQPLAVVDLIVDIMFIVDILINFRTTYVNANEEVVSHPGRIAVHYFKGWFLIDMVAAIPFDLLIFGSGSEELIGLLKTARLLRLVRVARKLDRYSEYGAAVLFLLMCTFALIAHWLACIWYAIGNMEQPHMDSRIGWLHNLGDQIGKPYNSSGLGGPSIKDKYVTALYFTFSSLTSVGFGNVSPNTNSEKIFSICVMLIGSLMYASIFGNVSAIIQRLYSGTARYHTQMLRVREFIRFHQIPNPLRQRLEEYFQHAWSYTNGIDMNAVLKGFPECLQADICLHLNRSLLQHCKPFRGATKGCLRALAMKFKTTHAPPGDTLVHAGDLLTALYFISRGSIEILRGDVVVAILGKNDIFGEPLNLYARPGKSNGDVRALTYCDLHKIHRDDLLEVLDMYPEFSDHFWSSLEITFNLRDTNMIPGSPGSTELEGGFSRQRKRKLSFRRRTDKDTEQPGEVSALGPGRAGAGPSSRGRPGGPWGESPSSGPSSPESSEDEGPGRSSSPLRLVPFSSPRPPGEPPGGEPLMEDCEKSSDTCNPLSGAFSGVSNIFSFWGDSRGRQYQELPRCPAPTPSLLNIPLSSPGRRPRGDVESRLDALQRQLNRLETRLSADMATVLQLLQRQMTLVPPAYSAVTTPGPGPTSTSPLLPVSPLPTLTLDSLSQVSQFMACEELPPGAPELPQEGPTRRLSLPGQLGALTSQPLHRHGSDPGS", "assay": "primary screen, population patch clamp on CHO cells stably expressing hERG", "units": {"hERG current change (%, negative = inhibition) at 10uM": "%"}, "values": [{"smiles": "C=CCn1cc(-c2ccccc2)cc(C#N)c1=O", "hERG current change (%, negative = inhibition) at 10uM": 9.02}, {"smiles": "Cc1ccc(NC(=O)CNc2cc(S(=O)(=O)N3CCOCC3)ccc2NCC2CCCO2)cc1F", "note": "(stereo not shown)", "hERG current change (%, negative = inhibition) at 10uM": -7.18}, {"smiles": "CCCC(=O)N1CC(=O)Nc2ccc(C)cc2C1c1ccc(F)cc1", "note": "(stereo not shown)", "hERG current change (%, negative = inhibition) at 10uM": 0.427}, {"smiles": "COc1ccc(C(C)=O)cc1COC(=O)Cn1cnc2ccccc2c1=O", "hERG current change (%, negative = inhibition) at 10uM": -1.2}, {"smiles": "CCOC(=O)c1c(N)sc(-c2ccccc2)c1C", "hERG current change (%, negative = inhibition) at 10uM": 7.12}, {"smiles": "O=C(Cn1nnc2c(cnn2-c2ccccc2)c1=O)NCc1cccs1", "hERG current change (%, negative = inhibition) at 10uM": 2.04}, {"smiles": "O=C(NCc1ccc(Cl)cc1)C(=O)Nc1nccs1", "hERG current change (%, negative = inhibition) at 10uM": 20.7}, {"smiles": "Fc1cccc(-c2oncc2-c2nnnn2-c2ccc(Cl)cc2)c1", "hERG current change (%, negative = inhibition) at 10uM": -13.9}, {"smiles": "COc1ccc(-c2noc(CSc3nc4ccccc4c(=O)n3-c3ccc(C)cc3)n2)cc1", "hERG current change (%, negative = inhibition) at 10uM": 11.5}, {"smiles": "Cc1cc(/C=N/NC(=O)c2ccncc2)c(C)n1-c1cccc(C(F)(F)F)c1", "hERG current change (%, negative = inhibition) at 10uM": -3.21}, {"smiles": "CCCCCSc1nc2c(c(=O)[nH]c(=O)n2C)n1C", "hERG current change (%, negative = inhibition) at 10uM": -2.12}, {"smiles": "Cn1ccc2c([N+](=O)[O-])cccc2c1=O", "hERG current change (%, negative = inhibition) at 10uM": 1.44}, {"smiles": "Cc1nn(CC(=O)OCC(=O)Nc2c(C(C)C)cccc2C(C)C)c(C)c1[N+](=O)[O-]", "hERG current change (%, negative = inhibition) at 10uM": 4.75}, {"smiles": "CN1CCN(C(=O)c2cnn(-c3ccccc3)c2NC(=O)c2ccc(Br)cc2)CC1", "hERG current change (%, negative = inhibition) at 10uM": -81.4}, {"smiles": "COc1ccc(C(=O)C2CCCN(C3CSCCSC3)C2)c(OC)c1", "note": "(stereo not shown)", "hERG current change (%, negative = inhibition) at 10uM": -43.6}, {"smiles": "Cc1ccc(CN2C(=O)CSC2c2cccnc2)cc1", "note": "(stereo not shown)", "hERG current change (%, negative = inhibition) at 10uM": -6.2}, {"smiles": "C/C(=N/NC(=O)c1sc(NS(=O)(=O)c2ccc(C)cc2)nc1C)c1sc(N)nc1C", "hERG current change (%, negative = inhibition) at 10uM": 13.7}, {"smiles": "COc1ccc(C(=O)Nc2cc(C)c3c(=O)oc4ccccc4c3n2)cc1", "hERG current change (%, negative = inhibition) at 10uM": 7.49}, {"smiles": "COc1ccc(OCC(=O)Nc2cc(C)c(Cl)cc2OC)c([N+](=O)[O-])c1", "hERG current change (%, negative = inhibition) at 10uM": 10.7}, {"smiles": "CC(C)NC(=O)c1ccc2c(c1)N(CC(=O)Nc1ccccc1F)C(=O)C(C)(C)O2", "hERG current change (%, negative = inhibition) at 10uM": 15.2}, {"smiles": "COc1ccc(/C=C(\\C#N)C(=O)OC2CCOC2=O)cc1", "note": "(stereo not shown)", "hERG current change (%, negative = inhibition) at 10uM": -2.05}, {"smiles": "O=C(NCC1CCCO1)/C(=C/c1ccc(Cl)cc1)NC(=O)c1ccccc1", "note": "(stereo not shown)", "hERG current change (%, negative = inhibition) at 10uM": 2.01}, {"smiles": "C[N+]1(CCCCSc2ccc(O)cc2)CCCCC1.[I-]", "hERG current change (%, negative = inhibition) at 10uM": -51.7}, {"smiles": "COC(=O)/C(=C\\c1ccc([N+](=O)[O-])o1)NC(=O)c1ccccc1", "hERG current change (%, negative = inhibition) at 10uM": -15}, {"smiles": "Cc1ccc(NC(=O)C(=O)NCCN2CCN(Cc3ccc([N+](=O)[O-])cc3)CC2)cc1", "hERG current change (%, negative = inhibition) at 10uM": -72.8}, {"smiles": "CCOC(=O)COc1nc(C)cc(C(F)(F)F)c1C#N", "hERG current change (%, negative = inhibition) at 10uM": 4.13}, {"smiles": "Cc1ccc(-c2c(NCCc3ccccc3)c(=O)c2=O)cc1", "hERG current change (%, negative = inhibition) at 10uM": 23.3}, {"smiles": "Cc1ccc2cc3cc(C(=O)NCCCN4CCCC4)oc3nc2c1", "hERG current change (%, negative = inhibition) at 10uM": -15.5}, {"smiles": "O=C(CNC(=O)C1COc2ccccc2O1)N/N=C/c1ccc(O)cc1O", "note": "(stereo not shown)", "hERG current change (%, negative = inhibition) at 10uM": -8.06}, {"smiles": "COc1ccc(F)cc1C(=O)C1CCCN(C(=O)c2ocnc2C)C1", "note": "(stereo not shown)", "hERG current change (%, negative = inhibition) at 10uM": -10.1}, {"smiles": "Cc1cc(O)c(Oc2cc(C)cc(O)c2O)c(O)c1", "hERG current change (%, negative = inhibition) at 10uM": 17}, {"smiles": "CCC(=O)Nc1nnc(SCc2ccc(F)cc2)s1", "hERG current change (%, negative = inhibition) at 10uM": 1.16}, {"smiles": "C[C@H]1C/C=C/[C@H]2[C@H](O)[C@H](C)[C@@](C)(O)[C@H]3[C@H](Cc4ccccc4)NC(=O)[C@]32[C@H](O)/C=C/[C@](C)(O)C1", "hERG current change (%, negative = inhibition) at 10uM": 20.4}, {"smiles": "Cc1ccc(C(C)C)c(OCCSc2nc3ccccc3n2CC(=O)O)c1", "hERG current change (%, negative = inhibition) at 10uM": 11.1}, {"smiles": "O=C(Nc1ccccc1)N1CCN(Cc2ccccc2)CC1.O=C(O)C(=O)O", "hERG current change (%, negative = inhibition) at 10uM": 11.9}, {"smiles": "CC1=C(C(=O)NC2CCCc3c2cnn3-c2cc(F)cc(F)c2)OCCO1", "note": "(stereo not shown)", "hERG current change (%, negative = inhibition) at 10uM": -7.64}, {"smiles": "Cn1nnnc1SCc1nnc(-c2ccc(Cl)cc2)o1", "hERG current change (%, negative = inhibition) at 10uM": -4.53}, {"smiles": "Cn1c(=O)cc(SCC(=O)NCc2ccco2)c2ccccc21", "hERG current change (%, negative = inhibition) at 10uM": 8.51}, {"smiles": "Cc1cc2sc(C(=O)O)c(C)c2s1", "hERG current change (%, negative = inhibition) at 10uM": -2.64}, {"smiles": "COc1ccc2c(c1)C(=O)N(c1ccccc1OC)C(=O)C2(C)C", "hERG current change (%, negative = inhibition) at 10uM": -7.4}, {"smiles": "CC1CN(C(=O)c2cc(S(=O)(=O)N(C)c3ccc(F)cc3)ccc2Cl)CC(C)O1", "note": "(stereo not shown)", "hERG current change (%, negative = inhibition) at 10uM": -10.5}, {"smiles": "Cc1[nH]c2ccccc2c1C(=O)CSc1nc2cc(S(=O)(=O)N3CCCCC3)ccc2o1", "hERG current change (%, negative = inhibition) at 10uM": 14.8}, {"smiles": "C/C(=N\\NC(=O)c1nc2ccccn2c1C)c1ccco1", "hERG current change (%, negative = inhibition) at 10uM": -1.34}]}]}
